Over roughly 33,000 sequences, “E-score (-0.5 to 0.5)” has its median near -0.021; the highest 2% begin near 0.32. Some of the results follow.
Molecular target: T1, Zap1 (UniProt P47043)
T1 sequence: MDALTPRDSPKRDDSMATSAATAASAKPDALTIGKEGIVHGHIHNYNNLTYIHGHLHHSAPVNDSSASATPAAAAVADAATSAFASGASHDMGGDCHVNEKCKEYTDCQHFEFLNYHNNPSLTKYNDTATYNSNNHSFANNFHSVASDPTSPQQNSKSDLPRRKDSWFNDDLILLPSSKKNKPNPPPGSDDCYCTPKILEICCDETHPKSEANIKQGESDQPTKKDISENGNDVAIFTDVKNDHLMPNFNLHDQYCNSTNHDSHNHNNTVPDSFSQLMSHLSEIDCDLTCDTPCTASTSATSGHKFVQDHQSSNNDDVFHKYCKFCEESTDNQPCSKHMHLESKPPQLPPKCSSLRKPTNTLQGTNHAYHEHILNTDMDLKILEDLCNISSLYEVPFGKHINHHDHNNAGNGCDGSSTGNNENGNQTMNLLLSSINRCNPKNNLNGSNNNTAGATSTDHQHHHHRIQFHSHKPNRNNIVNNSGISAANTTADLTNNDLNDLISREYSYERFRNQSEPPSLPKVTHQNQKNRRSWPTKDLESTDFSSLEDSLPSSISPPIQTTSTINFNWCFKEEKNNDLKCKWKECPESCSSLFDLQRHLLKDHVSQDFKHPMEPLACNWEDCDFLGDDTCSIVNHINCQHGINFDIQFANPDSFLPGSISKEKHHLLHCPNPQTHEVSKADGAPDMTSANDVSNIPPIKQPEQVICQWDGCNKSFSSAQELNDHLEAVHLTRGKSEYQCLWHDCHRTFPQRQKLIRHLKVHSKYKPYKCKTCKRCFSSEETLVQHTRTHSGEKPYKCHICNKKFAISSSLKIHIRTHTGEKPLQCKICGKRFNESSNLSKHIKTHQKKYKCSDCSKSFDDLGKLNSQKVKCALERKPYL
Assay: PBM E-score (8-mer binding enrichment) (E-score (-0.5 to 0.5)); higher = stronger / more preferred TF binding; most listed sequences are background and not binding sites
Settings: protein concentration: 200 nM; construct: GST-full length
Procedure, shortened: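 Each ungapped eight-base word and its reverse complement, pooled, received an E-score from the Universal PBM Analysis Suite. Underlying scans, normalised with masliner, recorded fluorescent anti-GST bound to GST-tagged yeast transcription factors. These were applied at about 100-200 nM to universal all-10-mer Agilent arrays double-stranded by primer extension.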

Sequence	PBM E-score
CTCAGTCC	-0.304
CAACCATA	0.0705
CGAATCAA	0.0378
CGCGTGCA	-0.0396
GCGTAAGC	-0.239
CCGTGTAG	0.0575
CAGCTATA	0.0481
ATGCATAG	-0.12
CGCTAAGA	0.0009
GGATTCCA	0.0356
CGCCCCTC	0.0497
CACGGGTC	0.215
ATCACATA	0.155
CACCATGA	0.00417
CAGATCTA	-0.244
GACGGTAC	0.183
GATGAGCC	-0.204
GGCTTCCA	-0.298
ATGATAAC	0.201
ATGCAACG	-0.161
AGGTATGA	0.291
ACAACGTC	-0.203
ATGACCGC	0.302
CTTTCCGA	0.0215
CGCGAACA	0.188

Sequence	PBM E-score
AATTGCTC	-0.233
ACTGATCA	0.151
CCGCTTTA	-0.09
GCCCGAAA	0.0437
ATAGATTA	0.13
CATCGCAG	-0.126
GCCGTCCA	0.00749
AGACGCTG	-0.266
GGGTGTTA	0.0929
GACGGAGC	-0.214
ACAATCAA	-0.00207
CCCTAGCG	-0.0546
AAATGATG	0.0598
AACGACAA	0.0795
ATCGGTGA	0.0975
CACATTCG	-0.0257
AGTCCACG	0.0218
ATTACCGA	0.18
AGATTATC	0.0616
AATGCTCA	-0.145
CTCCCTAA	-0.143
AGCGAAGG	-0.059
CCGTTATC	0.0246
CAGCTGTA	-0.203
TATTCGAA	0.0178

Sequence	PBM E-score
CACCGGTA	0.188
CAACAGAC	-0.0156
TGACGGCA	-0.224
CTAGTCCC	-0.248
AATGTACT	0.0783
GTCAACAC	0.0515
ACGGCTCG	-0.0135
CAGAAAAC	0.0871
CACTGGTA	0.114
CCATCGTC	-0.0439
AATAGAAT	0.0431
GGTACACC	0.0906
ATCACTAG	0.00086
GTACGCAC	-0.0801
GAGTCCAA	-0.0278
CCAGAACG	-0.0194
ACCGGTCA	0.24
ATCGCCCG	-0.251
AGCAGGCT	-0.24
ACTTCTCT	-0.0321
CTGACTTA	0.0223
AATTGCCC	-0.118
TACCGTGA	0.247
GAGACGGA	-0.188
CTTACATC	-0.00556

Sequence	PBM E-score
ACTGTCAA	-0.0221
ATGGTGCA	0.0684
ATAGAGCG	-0.17
CTTGAGTC	-0.0467
GGCACCAA	0.0722
ATTCGGAC	0.0335
GATGTAGA	-0.0865
AACGCAAC	0.235
ACTAATAT	0.135
ATCGGTCG	0.0271
GGTCTACA	0.00432
AAAGCTCG	-0.121
GTAAATGA	0.0351
AATTACAT	-0.00353
CGGGACAA	-0.0695
CAGATGGC	-0.149
CATATGGC	-0.066
ACATGAAA	-0.0064
ATTTGAGG	0.0474
GTTGGTGA	0.148
GGTCACTA	0.25
CAGGGAAC	0.144
AAGAACCA	0.216
AATACGCT	-0.155
AATTCAGT	-0.198

Sequence	PBM E-score
AAATGTGC	0.108
TGCGACCA	0.171
GGCTCCGA	-0.112
CCGTGTGA	0.00858
CGTGCAGA	0.0489
TCTCGGAA	0.0401
CATTCGAG	0.013
AATTAAGG	0.213
AGCCAAAG	-0.105
GACTCATC	-0.292
CAGGTGCC	-0.163
ACGCACGG	-0.123
ATTCGGTA	0.203
GTCGATAA	-0.0534
AGATGGAC	-0.0642
ACTGAGCA	-0.177
AAAGAAGT	-0.028
ATGGGGGA	-0.259
CAACTTGA	0.134
TCATCACA	-0.0219
AACGAATT	0.121
GAAGATTA	0.0698
CCAACAAA	0.224
TAGGTGCA	-0.191
ACACAGCT	-0.124

Sequence	PBM E-score
AAACCTAA	0.159
GAAGAACA	0.101
ACAGGAAG	-0.112
CCCAGCAA	0.0561
GCTAACCC	0.32
CGAGAGGA	-0.0403
ATAGCTAG	-0.061
GTCAAGGA	-0.109
CATTGCAG	0.041
CGACGGTA	0.147
GATTTCTA	0.00455
AGTTGACC	0.123
CCAGAGAC	-0.175
ACGAATGG	0.0825
AATGCGCT	-0.055
CTTTGGGC	-0.0895
CAACGCTA	-0.148
CGCAACCA	0.283
GACCGTGA	0.199
AAAGCAAA	0.116
CACCCATC	0.0232
CTGTGGCC	-0.153
AGCTGTTC	-0.11
CAATTAAG	0.142
AAACAGGT	0.135

Sequence	PBM E-score
AATCAGGT	0.189
GAGCCAAA	0.0309
TCAACTCA	-0.052
AAGTTCAA	-0.0253
AATCTCCC	-0.167
AGCTACCA	0.0544
GATTTGCC	-0.16
CTATAAAG	-0.0295
CCCTTTGA	-0.0249
ATATAACC	0.456
GCCGCACA	-0.122
GCAGCCCA	-0.303
AAACCTAG	0.051
AAAATATA	0.233
AGTTTGGA	0.0365
ATGCAAGG	-0.18
GCCAGGAC	-0.149
TAGGGACA	0.0791
AAGAAGGG	0.0894
GGAAGAAA	0.00274
CCATATAA	0.175
AGCGTGCG	-0.101
